Over roughly 110,000 compounds, “z-score” has its median near -0.1; the highest 2% begin near 2. This is one part of the list. Activity calls are given as the source filed them.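 The calls were made as follows: active = z-score in the third read window above 3 or below -3; inactive = the rest.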
target: Metabotropic glutamate receptor 8 (Rattus norvegicus) (UniProt P70579); experiment: rat mGluR8 modulators via GIRK flux, primary screen, cell-based, thallium flux, HTS (AID 488969); settings: HEK293 rat mGluR8, GIRK (G protein-gated inwardly rectifying potassium channel) thallium flux, FluoZin2; at 10 µM; stronger effect = higher value; submaximal glutamate (EC20) added with thallium
Chain of UniProt P70579 (P70579 whole entry, looked up): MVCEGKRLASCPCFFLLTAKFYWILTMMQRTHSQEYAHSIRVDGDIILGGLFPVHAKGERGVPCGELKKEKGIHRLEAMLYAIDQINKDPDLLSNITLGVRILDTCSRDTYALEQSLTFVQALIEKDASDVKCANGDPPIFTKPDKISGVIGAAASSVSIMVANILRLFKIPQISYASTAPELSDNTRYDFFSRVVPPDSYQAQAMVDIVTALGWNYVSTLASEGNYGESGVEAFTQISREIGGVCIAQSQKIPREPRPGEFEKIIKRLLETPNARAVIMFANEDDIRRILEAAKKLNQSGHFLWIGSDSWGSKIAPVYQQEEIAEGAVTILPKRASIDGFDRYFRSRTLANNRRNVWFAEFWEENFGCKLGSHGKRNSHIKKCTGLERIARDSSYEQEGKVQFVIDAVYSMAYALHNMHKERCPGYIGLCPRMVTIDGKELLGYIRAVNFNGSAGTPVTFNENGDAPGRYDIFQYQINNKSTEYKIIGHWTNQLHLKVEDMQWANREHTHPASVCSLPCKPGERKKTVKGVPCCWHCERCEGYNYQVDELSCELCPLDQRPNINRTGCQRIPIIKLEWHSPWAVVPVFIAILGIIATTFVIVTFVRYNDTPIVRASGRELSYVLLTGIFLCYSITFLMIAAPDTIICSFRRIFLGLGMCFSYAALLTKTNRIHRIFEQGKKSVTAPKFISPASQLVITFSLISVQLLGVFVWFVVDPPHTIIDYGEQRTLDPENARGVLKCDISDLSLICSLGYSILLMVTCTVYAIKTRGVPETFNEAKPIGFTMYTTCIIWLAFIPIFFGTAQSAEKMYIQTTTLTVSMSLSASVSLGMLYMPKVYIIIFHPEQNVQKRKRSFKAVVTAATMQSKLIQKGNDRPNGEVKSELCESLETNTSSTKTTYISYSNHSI

| Structure (SMILES) | z-score |
| --- | --- |
| Cc1c(NC(=O)C23CC4CC(CC(C)(C4)C2)C3)c(=O)n(-c2ccccc2)n1C | -0.193 |
| CCOc1cc(CNCCSc2nnnn2C)cc(Br)c1OCc1ccccc1F | 0.196 |
| CCN(CC)c1ccc2cc(C(C)=O)c(=O)oc2c1 | -2.23 |
| CCN=C1S/C(=C\c2ccc(Sc3ccc(Cl)cc3)o2)C(=O)N1CC | -0.313 |
| O=C(c1cnn2cccnc12)N1CCN(c2ccccc2)CC1 | 0.0788 |
| COc1ccc(-n2ncc3c(=O)n(CC(=O)N4CCCc5ccccc54)cnc32)cc1 | 0.104 |
| O=C(NC1CC1)C1CCN(c2ccc(S(=O)(=O)N3CCOCC3)cc2)CC1 | -0.303 |
| Cc1c(C(=O)NCc2ccco2)cccc1[N+](=O)[O-] | -0.0721 |
| COc1ccc(NC(=O)C23CCC(C)(C(=O)O2)C3(C)C)cc1 (centres undefined) | 0.0605 |
| CCc1ccc(/C=N/n2c(C)cc(C)c(C#N)c2=O)cc1 | -0.158 |
| Nc1nc2n(n1)C(c1cccc(Br)c1)CC(c1ccc(F)cc1)N2 (centres undefined) | 0.693 |
| Cc1ccc(-c2nnnn2CS(=O)(=O)c2ccccc2)cc1 | -0.118 |
| O=C(CN1CCSC1=NCc1ccccc1)c1ccc(Cl)cc1 | 0.0664 |
| COC(=O)COc1ccc2c(-c3ccc(OC)cc3)cc(=O)oc2c1 | -0.548 |
| Cc1cc(C)c2ccc(NN)nc2c1O | 1.51 |
| CCOC(=O)c1cc2oc(C)cc2n1CC(=O)OC1CCCCC1 | 0.159 |
| Cc1ccc(-c2cc3ccccc3nc2N2CCCC2)cc1 | -0.0969 |
| Cc1cc2n(c(=O)c1C#N)CCCN2c1ccccc1 | -0.204 |
| O=C(O)C1C2C=CC(C2)C1C(=O)N1CCN(C/C=C/c2ccccc2)CC1 (centres undefined) | 0.0931 |
| Oc1ccc(Cl)cc1-c1cc(-c2ccco2)[nH]n1 | -0.00898 |
| C/C(=N/NC(=S)Nc1ccccc1)c1ccc2c(c1)OCO2 | active: 7.92 |
| Cc1nc(Sc2ccccc2)c(C#N)cc1-c1ccccc1 | -0.111 |
| COc1cc(OC)cc(C(=O)n2nc(C)cc2C)c1 | 0.0696 |

| Structure (SMILES) | z-score |
| --- | --- |
| Cc1ccc2c(c1)C1CN(C)CCC1N2C(=O)Nc1ccc(Cl)cc1 (centres undefined) | 0.457 |
| O=C(CN1C(=O)CCC1=O)Nc1nc(-c2ccccn2)cs1 | -0.187 |
| CCCCOC(=O)c1ccc(Nc2ccc([N+](=O)[O-])cn2)cc1 | -0.323 |
| O=C(Nc1cccnc1)c1ccc2c(c1)C(=O)N(Cc1cccnc1)C2=O | -0.157 |
| COc1ccc([N+](=O)[O-])cc1NC(=O)CSCc1cc(C)cc(C)c1 | -0.0401 |
| O=C(c1ccc([N+](=O)[O-])cc1)N1CCSC1c1ccccc1 (centres undefined) | 0.166 |
| COc1ccc(Oc2coc3cc(OC(=O)c4cncc(Br)c4)ccc3c2=O)cc1 | 0.127 |
| Cc1sc(NC(=O)c2ccco2)c(CN2CCC(C)CC2)c1C | 0.102 |
| Cc1ccc2c(c1)c(C)c(C)n2CC(O)Cn1nc(C)c(Br)c1C (centres undefined) | 1.09 |
| CCOc1ccc(Cn2ccnc2CCl)cc1[N+](=O)[O-] | -0.00871 |
| CCOC(=O)c1cc(=O)n2nc(-c3ccccc3F)nc2s1 | -0.0057 |
| Cc1cccc(NC(=O)Cn2c(O)c(N=NC(=O)c3ccccc3O)c3ccccc32)c1 | -0.0679 |
| Cc1c(C(=O)NCc2ccccn2)oc2ccccc12 | -0.3 |
| O=C(CSc1ncc(-c2ccccc2)n1C1CCCC1)N1CCc2ccccc21 | -0.347 |
| CCn1c2ccccc2c2cc(NC(=O)CSc3nnc(-c4cccc(Cl)c4)o3)ccc21 | -0.778 |
| Nc1c(C(=O)c2ccc(Cl)cc2)oc2ccccc12 | -0.0786 |
| CS(=O)(=O)N(CCc1ccccc1)CC(=O)N1CCN(c2ccccc2F)CC1 | 1.15 |
| Nc1ccc2nc(-c3ccccc3)sc2c1 | -0.0205 |
| Fc1ccc(-c2[nH]ncc2-c2nnnn2-c2ccccc2)c(F)c1 | -0.709 |
| Cc1csc2nc(=O)c3ccccc3n12 | -0.686 |
| O=S(=O)(O/N=C1\CCCc2ccccc21)c1ccc(Cl)cc1 | 0.0594 |
| O=C(c1ccccc1)c1cc(-c2ccccc2)on1 | -0.175 |
| O=C(OCC(=O)c1ccc(Cl)cc1Cl)c1ccc2c(c1)C(=O)N(c1cccc3ncccc13)C2=O | 0.125 |

| Structure (SMILES) | z-score |
| --- | --- |
| CCOC(=O)c1c(NC(C)=O)sc2c1CCC(C=NCCCN(CC)CC)=C2Sc1ccccc1 | 0.0383 |
| Cn1cccc1Cc1nnc(SCC(=O)NCc2ccccc2Cl)n1-c1ccc(F)cc1 | 0.0628 |
| C=CCNC(=S)NNC(=O)c1ccc(OCCCC)cc1 | -0.162 |
| COc1ccc(C(=O)NCc2nc3ccccc3[nH]2)cc1OC | -0.286 |
| N#Cc1nc(COc2ccc(F)cc2)oc1N1CCC(Cc2ccccc2)CC1 | -0.0698 |
| COc1ccc(-n2c(C)nn(C)c2=O)c(OC)c1 | -0.0931 |
| CCc1ccc(C2=NN(C(=O)OC)C(O)(C(F)(F)F)C2)cc1 (centres undefined) | -0.152 |
| O=C(CSc1ncn[nH]1)NC1CC2CCC1C2 (centres undefined) | -0.0325 |
| COc1ccc(N2CCN(c3nc(Nc4ccc(F)cc4)nc(OC)n3)CC2)cc1 | -0.199 |
| Cc1ccc(C(=O)NCc2ccco2)cc1S(=O)(=O)N1CCOCC1 | 0.0197 |
| O=C(Nc1cc(C(F)(F)F)ccc1Cl)c1cc2nc3c(c(C(F)(F)F)n2n1)CCCC3 | -0.0974 |
| Cc1ccc(C(C)NC(=O)Cn2nc(C)c([N+](=O)[O-])c2C)cc1 (centres undefined) | -0.289 |
| O=C(CSCc1ccccc1)Nc1cccc(F)c1 | -0.488 |
| CC1CCc2c(sc(N)c2C(N)=O)C1 (centres undefined) | 0.573 |
| O=C(NCCN1CCOCC1)C1CCN(Cc2ccccc2O)CC1 | 0.139 |
| O=C(CCN1CCN(c2ccccc2F)CC1)c1ccc(Br)cc1 | -0.797 |
| CCCn1c(C)cc(C(=O)COc2ccc(S(=O)(=O)N(CC)CC)cc2[N+](=O)[O-])c1C | -0.314 |
| CCOC(=O)Nc1ccc([N+](=O)[O-])cc1C | 0.0184 |
| O=C(N/C(=C/c1cccc(Br)c1)c1nc(=S)[nH][nH]1)c1ccccc1 | -0.238 |
| CCn1c(N2CCC(C)CC2)nc2c1c(=O)n(C)c(=O)n2C | -0.18 |
| Cc1n[nH]c(C)c1S(=O)(=O)N1CCN(c2ccccn2)CC1 | -1.08 |
| CN(C)c1ccc(N=Cc2nc(-c3ccccc3)oc2OC(=O)c2cccc(Cl)c2)cc1 | -0.933 |
| CCC(C)(C)NC(=O)C(c1cccn1C)N(Cc1ccc(OC)cc1)C(=O)Cn1nnc2ccccc21 (centres undefined) | 0.0645 |

| Structure (SMILES) | z-score |
| --- | --- |
| Nn1c(Nc2ccccc2)nc2sc3c(c2c1=O)CCC3 | -0.069 |
| CC(C)=C1C2CCC1C1C(=O)N(c3nc(-c4ccc(C(C)C)cc4)c(C)s3)C(=O)C21 (centres undefined) | -0.0235 |
| COc1ccc(Cl)cc1NC(=O)CNc1ccccc1F | -0.487 |
| COc1ccc(OCCc2nnc(N)s2)cc1 | 0.0465 |
| CNc1nc(N)c(C(=O)C(C)(C)C)s1 | 0.165 |
| CCCCc1nnc(NC(=O)C2CCCO2)s1 (centres undefined) | 0.294 |
| CCC1=NN(C(=O)C(=O)NCCc2ccccc2)C(O)(C(F)(F)F)C1 (centres undefined) | 0.0991 |
| Cc1cc(C(=O)CSc2nnc(-c3ccc(F)cc3)o2)c(C)n1CC1CCCO1 (centres undefined) | -0.0536 |
| CCOc1cc(CN2CCN(C(=O)CC(C)C)CC2)ccc1OC | -0.423 |
| CCN(CC)CCNc1nc2c(c(=O)n(C)c(=O)n2C)n1C/C=C(/C)Cl | 0.0501 |
| Cc1ccc(Cn2c(SCCN3CCCCC3)nc3c2c(=O)n(C)c(=O)n3C)cc1 | -0.343 |
| Cc1c(C(=O)COC(C)(C)C)[nH]c2ccccc12 | -0.00701 |
| CCCNC1=C(C)C(=O)CC1 | 0.113 |
| CCc1cccc(NC(=O)COc2ccccc2)c1 | 0.78 |
| CCCCC(=O)NC1(C(F)(F)F)C(=O)Nc2c1c(=O)n(C)c(=O)n2C (centres undefined) | 0.13 |
| CCc1ccc(NCc2nc3ccccc3c(=O)[nH]2)cc1 | -0.644 |
| CCOC(=O)c1c(NC(=O)COC(=O)CNC(=O)c2ccco2)sc(C)c1C | -0.517 |
| NS(=O)(=O)c1cccc(NC(=O)CCSc2ccc(Cl)cc2)c1 | -0.162 |
| C=CCn1c2ccccc2n2nc(C)c(=O)nc12 | -0.256 |
| COc1ccccc1NC(=O)CSc1nc(O)cc(=O)n1C | -0.448 |
| Cc1ccc(NC(=O)c2ccc(C(C)(C)C)cc2)cc1[N+](=O)[O-] | 2.5 |
| COC(=O)/C=C/C(=O)N1CCN(c2ccccc2)CC1 | -0.0929 |
| CC(=C/C(=O)O)/C=C/c1ccc(Cl)o1 | 0.0424 |

| Structure (SMILES) | z-score |
| --- | --- |
| COC(=O)c1cccc(C(=O)Nc2ccc(C)cc2)n1 | -0.718 |
| O=C(NCc1ccccc1)c1cccc(COc2ccc3c(c2)CCC3)c1 | 0.0209 |
| CCCC(=O)Nc1cccc(NC(=O)c2ccccc2Br)c1 | -0.00843 |
| COC(=O)CNC(c1ccccc1Cl)c1cc(Br)ccc1NC(=O)CCN1CCOCC1 (centres undefined) | -0.438 |
| Cc1noc(C)c1COC(=O)CCCc1nc2ccccc2s1 | -0.721 |
| CC(=O)N(Cc1ccco1)C1(C(=O)NC2CCCCC2)CCCCC1 | -0.323 |
| CCC(=O)N1C(=O)CCN(C(C)=O)c2ccccc21 | 1.2 |
| COc1ccc(C(=O)N2CCN(S(=O)(=O)N3CCOCC3)CC2)cc1OC | 0.345 |
| Cc1cc(C)c(C#N)c(SCc2cn3ccccc3n2)n1 | -0.255 |
| Cn1c(SCC(=O)Nc2cccc(F)c2)nnc1-c1cc2ccccc2o1 | -0.2 |
| COc1cc(S(=O)(=O)N(Cc2ccccn2)Cc2ccco2)ccc1-n1cnnn1 | -0.493 |
| Cc1ccc(C)c(C(=O)n2cnnc2N)c1 | 0.51 |
| COc1ccc(S(=O)(=O)Nc2ccccc2C(=O)OC2CCCN(C)C2)cc1OC (centres undefined) | 1.28 |
| COc1ccc(NC(=S)NC2CCCCCC2)c(OC)c1 | -0.0804 |
| COc1cc(/C=N/NC(=O)CC2(C)OCCCO2)ccc1OCc1ccc(Cl)cc1Cl | -0.164 |
| O=C(C1=C(O)C(=O)N(CCN2CCOCC2)C1c1ccccc1)c1cccs1 (centres undefined) | -0.318 |
| O=C(c1nc2nc(-c3cccs3)cc(C(F)(F)F)n2n1)N1CCN(Cc2ccccc2)CC1 | -0.643 |
| COc1ccc(S(=O)(=O)N2CCCCC2C(=O)O)cc1 (centres undefined) | 0.392 |
| Cc1nc(SCC(=O)N2CC(C)OC(C)C2)nc(C)c1C (centres undefined) | -0.685 |
| O=C(C1CCCN(S(=O)(=O)c2cccc3nonc23)C1)N1CCC(Cc2ccccc2)CC1 (centres undefined) | -0.363 |
| C/C(N)=C(/C#N)C(=O)COC(=O)c1ccccc1O | 0.123 |
| O=C(NNS(=O)(=O)c1ccccc1)C1CCN(S(=O)(=O)c2ccc(Cl)cc2)CC1 | -0.131 |
